Source: ChEMBL document CHEMBL1201862, “PubChem BioAssay data set” (2004)
Values joined by “and” are separate entries in the source; they are usually repeats but may differ in a detail not shown here. Equal values may be shown once.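 Grown in 96-well plates, cells were treated for 48 hours with each compound at five concentrations. Insufficient inhibition: endpoint recorded as highest concentration tested. Here, GI50 denotes the concentration required for 50% inhibition of growth.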 Active and inactive are the calls of the source. No stated cut-off is given here; in the data, active = GI50 up to about 1.1 µM and inactive = higher.

Tested on: NCI-H322M
Assay: NCI tumour cell line growth inhibition, 48 h

| Structure (SMILES) | GI50 |
| --- | --- |
| CC(=O)c1cnc2oc3ccc(O)cc3c2c1-c1ccccc1 | inactive: 34.3 µM |
| O=C(NCc1ccccc1)c1c(O)nc2ccccc2c1O | inactive: > 100 µM |
| CCOC(=O)c1c(C)n(CCN2CCN(C)CC2)c2ccc(OC)cc12 | inactive: 55.6 µM |
| Nc1ccc2c(c1)C(=O)c1ccccc1-2 | inactive: > 100 µM |
| O=C(O)c1nnsc1COCc1ccccc1 | inactive: > 100 µM |
| O=C(O)[C@H](NS(=O)(=O)c1ccc(F)cc1)c1ccccc1 | inactive: > 100 µM |
| O=C(/C=C/c1ccc(Cl)c(Cl)c1)c1ccc2ccccc2c1 | inactive: > 100 µM |
| COc1ccc(C2Oc3c(OC)cc(CCCO)cc3C2CO)cc1OC (configuration not stated) | inactive: > 100 µM and inactive: 51.8 µM |
| COCC12CCC(OC)C34C5CC6(O)C(OC)C=C(C5C6OC(=O)c5ccccc5)C(C(OC)C13)C4N(C)C2 (configuration not stated) | inactive: > 100 µM |
| COc1cc2c(cc1Oc1ccc(OC)c3c1CC1c4c(cc(OC)c(OC)c4-3)CCN1C)CC1c3c(cc(OC)c(OC)c3-2)CCN1C (configuration not stated) | inactive: 2.01 µM |
| C/C(=C\COP(=O)(O)OP(=O)(O)O)CC/C=C(\C)CNc1ccc([N+](=O)[O-])cc1 | inactive: > 100 µM |
| CCn1c(-c2ccc(F)cc2)nc2c1C(=O)c1ccccc1C2=O | inactive: > 100 µM |
| COc1ccc2c3c([nH]c2c1[N+](=O)[O-])C(C)N(Cc1ccccc1)CC3 (configuration not stated) | inactive: > 100 µM |
| COC(=O)Nc1nc2cc(NS(=O)(=O)c3ccc(F)cc3)ccc2[nH]1 | inactive: 34.4 µM |
| COc1ccc(OC)c(NC(=O)C(=O)C(C(C)=O)c2nc3ccc(Cl)cc3nc2O)c1 (configuration not stated) | inactive: > 50 µM |
| C1CNOCCCONCCCNOCCCONC1 | inactive: > 100 µM |
| COc1ccc2c(c1C)C(=O)C(O)(CC=C(C)C)O2 (configuration not stated) | inactive: > 100 µM |
| CO/C(=N\N=C\c1ccccc1F)c1ccncc1 | inactive: > 10 µM |
| COC(=O)NN=C(c1ccc(Cl)cc1)c1ccc(Cl)cc1 | inactive: > 100 µM |
| O=c1c2c3ccccc3[nH]c2c2cccc3c2n1CCC3 | inactive: 46.2 µM |
| O=C(c1ccc(Cl)cc1)c1ccc(OCCCCCCCCCCOc2ccc(C(=O)c3ccc(Cl)cc3)cc2)cc1 | inactive: > 100 µM |
| COc1cc2ccn3c4cc(OC)c(OC)cc4cc3c2cc1OC | inactive: > 100 µM |
| C/C(=N/N)c1ccc2[nH]c3c(C)cc([N+](=O)[O-])c(C)c3c2c1 | inactive: 15 µM |

| Structure (SMILES) | GI50 |
| --- | --- |
| COC1CC(OC(=O)c2ccccc2)C(OC(=O)c2ccccc2)C(C)O1 (configuration not stated) | inactive: > 100 µM |
| COc1cc(C2SCC(=O)N2c2ccc(Cl)cc2)cc(OC)c1OC (configuration not stated) | inactive: 16.6 µM |
| CC(=O)n1ccc2c(Cl)ncnc21 | inactive: > 100 µM |
| Cc1cccc(C(C)C)c1NC(=O)CC1Sc2ccccc2NC1=O (configuration not stated) | inactive: > 100 µM |
| CCCCC/C(=N\c1[nH]nnc1C(N)=O)OCC | inactive: > 100 µM |
| Cc1ccc(C)n1-n1c(Cc2ccccc2)n[nH]c1=O | inactive: > 100 µM |
| COc1cc([C@H]2c3cc4c(cc3[C@H](NCc3ccc([N+](=O)[O-])cc3)C3COC(=O)[C@H]32)OCO4)cc(OC)c1O (some centres not stated) | inactive: 7.94 µM |
| O=C(O)Cc1ccc2c(c1)/C(=C1/Nc3ccccc3C1=O)C(=O)N2 | inactive: 24.4 µM |
| COc1ccccc1NC1=NCC(C)S1 (configuration not stated) | inactive: > 100 µM |
| COc1cc(C(=O)CC2(O)C(=O)Nc3c(Cl)cc(Cl)cc32)ccc1O (configuration not stated) | inactive: 70.5 µM |
| O=C(O)/C=C/C(=O)Nc1nc[nH]n1 | inactive: > 100 µM |
| O=C(/C=C/c1ccc(O)c([N+](=O)[O-])c1)CC(=O)/C=C/c1ccc(O)c([N+](=O)[O-])c1 | inactive: 40.9 µM |
| CCOC(=O)C1(C(=O)OCC)Nc2cccnc2N(C)N1 | inactive: > 100 µM |
| Cc1cc(NS(=O)(=O)c2ccc(NC(=O)c3ccc4nc5ccccc5c(Nc5ccc(S(=O)(=O)Nc6cc(C)on6)cc5)c4c3)cc2)no1 | inactive: > 50 µM |
| Cc1cc2[nH]c(Cl)c(/C=C3\C(=O)Nc4ccccc43)c2cc1O | inactive: 5.79 µM |
| COc1ccccc1N1C(Cl)C(=O)C1c1c[nH]c2ccccc12 (configuration not stated) | inactive: 55 µM |
| CSC1(Cc2ccccn2)C(=O)Nc2cccc([N+](=O)[O-])c21 (configuration not stated) | inactive: > 100 µM |
| COC(C)(C)OCCN1CCN(CCN2C3=C(C=C(C(C)=O)C3)Sc3ccccc32)CC1 | inactive: 27.7 µM |
| COc1ccc(/C(Cl)=C(\C=N/O)c2ccc(OC)c(OC)c2)cc1OC | inactive: > 100 µM |
| CN(C)CCN1C(=O)N(CCN(C)C)c2c3cc(O)ccc3nc3c([N+](=O)[O-])ccc1c23 | inactive: 7.14 µM |
| Cc1ccc(Cc2nn(C)c(=O)n2N)cc1 | inactive: > 100 µM |
| COc1ccc([N+](=O)[O-])c2c(NCCCN(C)C)c3ccccc3nc12 | active: 0.437 µM |
| COC(=O)CCc1cc(OC)c2c(c1)[C@H](C(=O)OC)[C@@H](c1ccc(O)c(OC)c1)O2 | inactive: > 100 µM |

| Structure (SMILES) | GI50 |
| --- | --- |
| O=C1NC(=S)N/C1=C\c1ccc(Sc2ccccc2C(=O)O)s1 | inactive: > 100 µM |
| COc1cc(/C=C2\N=C(c3ccccc3)N(/N=C3\C(=O)Nc4ccccc43)C2=O)cc(OC)c1OC | inactive: > 100 µM |
| O=C1CC(=O)c2c(Cl)sc(Cl)c21 | inactive: > 100 µM |
| COC(=O)C1Cc2c(OC)ccc(OC)c2CC(C(=O)OC)C1=O (configuration not stated) | inactive: 60.1 µM |
| O=C(NCCN1C(=O)CN=C(c2ccc(Cl)cc2)c2cc(Cl)ccc21)OCc1ccccc1 | inactive: 17.3 µM |
| COC(=O)C1(Cc2ccc3c(c2)CCC3)Cc2ccccc2C1O (configuration not stated) | inactive: 20 µM |
| O=C(O)C(F)(OC(F)(F)C(F)(F)C(F)(F)F)C(F)(F)F (configuration not stated) | inactive: > 100 µM |
| CCn1c(=O)ccc2ccc(N(CCO)CCO)nc21 | inactive: > 100 µM |
| O=C(n1c2ccccc2c2nnc(S)nc21)C(F)(F)F | inactive: > 100 µM |
| C/C=C\C(CC(=O)O)CC(=O)NCCC1CN(S(=O)(=O)C(F)(F)F)c2ccccc21 (configuration not stated) | inactive: > 100 µM |
| CCCCC#CS(=O)(=O)C(F)(F)F | inactive: > 100 µM |
| Cc1cc(N(CCC#N)CCC#N)ccc1/C=C(\NC(=O)/C=C/c1ccccc1)C(=O)Nc1ccc(Cl)cc1 | inactive: 98.4 µM |
| COc1cccc2c1C(=O)c1c(O)c3c(c(O)c1C2=O)CC(O)(C(C)=O)CC3OC1CC([N+](C)(C)C)C(O)C(C)O1 (configuration not stated) | inactive: > 100 µM |
| O=C(/C=C/c1c(O)ccc2ccccc12)c1ccc([N+](=O)[O-])cc1 | inactive: > 57.8 µM |
| O=c1[nH]c(=O)n(C2CC(O)C(CO)O2)cc1/N=N/NCCc1ccccc1 (configuration not stated) | active: < 0.01 µM |
| CC(=O)OCc1ccc2oc(=O)c(C(=O)Oc3ccccc3)cc2c1 | inactive: > 100 µM |
| O=C(Nn1c(-c2ccccc2)nc2ccccc2c1=O)c1ccc(Cl)cc1 | inactive: > 100 µM |
| O=C(Cn1c(C(=O)/C=C/c2ccc(Cl)c(Cl)c2)nc2ccccc21)c1ccccc1 | inactive: 17.2 µM |
| COc1ccc(NC(C(N)=O)c2cc3cc(Br)ccc3nc2Cl)cc1 (configuration not stated) | inactive: > 100 µM |
| O=C(O)[C@H]1[C@@H](C2CCCCC2)O[C@@H](C2CCCCC2)O[C@H]1C(F)(F)F | inactive: 24.8 µM |
| C/C(COc1ccccc1)=N\NC(N)=S | inactive: > 100 µM |
| C=C/C=C(\NC(=O)C(Cl)(Cl)Cl)[Si](C)(C)C | inactive: > 100 µM |
| Cc1cn(CCCCC2=NCCCN2)c(=O)[nH]c1=O | inactive: > 53.1 µM |

| Structure (SMILES) | GI50 |
| --- | --- |
| Cc1cn([C@@H]2C[C@H](CO)[C@@H]2O)c(=O)[nH]c1=O | inactive: > 100 µM |
| CC(=O)NC(CCCOC(C)=O)C(=O)NC(CCCOC(C)=O)C(=O)NC(CCCOC(C)=O)C(=O)NC(Cc1ccc([N+](=O)[O-])cc1)C(=O)NCC(=O)OCc1ccccc1 (configuration not stated) | inactive: > 100 µM |
| COc1cc2c(c(OC)c1OC)-c1ccc(SC)c(=O)cc1C(CC(=O)Oc1ccc([N+](=O)[O-])cc1)C2 (configuration not stated) | active: 0.124 µM |
| O=C(O)CNc1cc(-c2ccccc2)nc(NCC(=O)O)n1 | inactive: > 100 µM |
| CC[C@]1(Cc2ccc(OC)c(OC)c2)[C@@H]2C[C@@H](C(=O)OC)ON2O[C@H](OC2CCCC2(c2ccccc2)c2ccccc2)[C@@H]1OC(C)=O (some centres not stated) | inactive: > 100 µM |
| CC(=O)Nc1ccc(/C=C/C(=O)c2sc(-c3cccnc3)nc2C)cc1 | inactive: > 100 µM |
| Cc1nnc2n1N=C(c1ccc(-c3ccc([N+](=O)[O-])cc3)o1)CS2 | inactive: > 100 µM |
| COc1cc(/C=C/C(=O)CC(=O)/C=C/c2cc(C)c(O)c(OC)c2)cc(C)c1O | inactive: > 100 µM |
| CC(C)=CCC[C@@H](C)C1=C(O)C(=O)C(C)=C(Nc2ccccc2)C1=O | inactive: 17.5 µM |
| COc1ccc2nc3cc(Cl)ccc3c(NCCCN3CCN(CCCNc4ccc5nnn6c7ccccc7c(=O)c4c56)CC3)c2c1 | inactive: > 21.4 µM |
| C=CC1(C)CCC(C(C)C(=O)C(C=C(C)C)OC(C)=O)C12C(=O)Oc1ccccc1C2=O (configuration not stated) | inactive: > 100 µM |
| CC(C)(C)OC(=O)NC(CCCCNC(=O)OCc1ccccc1)C(=O)NCCNc1ccc(NCCNC(=O)C(CCCCNC(=O)OCc2ccccc2)NC(=O)OC(C)(C)C)c2c1C(=O)c1ccccc1C2=O (configuration not stated) | inactive: > 100 µM |
| CC1=CC(=O)/C(=C/NC(=O)NN)C(=O)O1 | inactive: > 100 µM |
| Cc1ccc(-c2c(C#N)c(S)n(NS(=O)(=O)c3ccccc3)c(=O)c2C#N)cc1 | inactive: 89.7 µM |
| CCc1n[nH]c(=O)[nH]1 | inactive: > 100 µM |
| COCN1COCN(C)C1=O | inactive: > 100 µM |
| Cc1ccc(S(=O)(=O)Nn2c(S)c(C#N)c(-c3ccc(N(C)C)cc3)c(C#N)c2=O)cc1 | inactive: 55 µM |
| CC(C)(C)[Si](C)(C)OCCC1CC2(S(=O)(=O)C3=CC=C=C=C3)ON1CC2S(=O)(=O)c1ccccc1 (configuration not stated) | inactive: > 10 µM |
| COc1ccc(-n2c(C)nc3ccc(NC4OC(CO)C(O)C(O)C4O)cc3c2=O)cc1 (configuration not stated) | inactive: > 100 µM |
| Cc1cc(=O)oc2c(CN3CCCCC3)c(O)ccc12 | inactive: > 100 µM |
| CN(C)c1ccc(-c2cc(O)c3cc4c(cc3n2)OCO4)cc1 | inactive: > 100 µM |
| O=C1C(NCCN2CCOCC2)=C(Cl)C(=O)c2ncccc21 | inactive: 1.13 µM |
| NC1(C(=O)O)CCc2ccc(N(CCCl)CCCl)cc2C1 (configuration not stated) | inactive: > 100 µM |
